# Laboratory results published in the supplement of paper PMC8728848.
# Some of the results follow.
# B1: Blon2468mut (Bifidobacterium longum) (protein)
# chain: MTFIKQMMPRYVASMTAGIVAAAMAATCAFAPVANADAVSPTQETIQSTGRHFMVYYRAWRDVTMKGVNTDLPDDNWISMYDIPYGVDVVNIFSYVPSGQEEQAQPFYDKLKSDYAPYLHSRGIKLVRGIDYTGVAVNGFRTFMKEQNKTESEATEADYDAYAKQVIDKYMISVGLDGLDIDMQAHPNDADVKISDNVIRALSKHIGPKSAKPDTTMFLYDTNGSYLNPFKNVAECFDYVAYQQYGSSSDRTARAAADYQPYIGNEFVPGLTFPEEGDMNNRWYDATEPYEESHFYQVASYVREHNLGGMFVYALDRDGRNYDEDLRRIVPSNLLWTKTAIAESEGMALDTAKTAANHYLDRMSLRQVIDDNAASADKARDMVGKAANLYETNKAVLGGDYGEGFSNTYDPTLEAGLLGIDISVLQQQIDKSSEIIGADTAESDAKTALRMARDAAIDGLTGKIYTADQVSAWSQALKAALDATVPVPTPDSTDQNGNRDKVTNHKVQGQPKQLSATGISTDIIVAVGVTLAIAGVALSLSRKLS
# How the values were obtained:
# Assay in all cases: glycan array binding signal (z-score within array); higher = stronger binding
# Conditions in all cases: glycan notation: IUPAC condensed, linker removed
# [1] = target: Neu5Ac(a2-8)Neu5Ac
# How it was run: (§1)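 Negative Z-scores can be read as non-binding. The Z-score is calculated within each array and then averaged across arrays of one protein sequence at different concentrations or buffers and across linkers. Arrays, 3228 in all, were curated from the Consortium for Functional Glycomics database and kept only where the protein sequence was available.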
# [2] = target: Neu5Ac(a2-8)Neu5Ac(a2-3)Gal(b1-3)GalNAc(b1-4)[Neu5Ac(a2-3)]Gal(b1-4)Glc
# How it was run: as §1
# [3] = target: Neu5Ac(a2-8)Neu5Ac(a2-3)Gal(b1-3)GalNAc(b1-4)[Neu5Ac(a2-8)Neu5Ac(a2-3)]Gal(b1-4)Glc
# How it was run: as §1
# [4] = target: Neu5Ac(a2-8)Neu5Ac(a2-3)Gal(b1-4)Glc
# How it was run: as §1
# [5] = target: Neu5Ac(a2-8)Neu5Ac(a2-3)Gal(b1-4)GlcNAc
# How it was run: as §1
# [6] = target: Neu5Ac(a2-8)Neu5Ac(a2-3)[Gal(b1-3)GalNAc(b1-4)]Gal(b1-4)Glc
# How it was run: as §1
# [7] = target: Neu5Ac(a2-8)Neu5Ac(a2-3)[GalNAc(b1-4)]Gal(b1-4)Glc
# How it was run: as §1
# [8] = target: Neu5Ac(a2-8)Neu5Ac(a2-8)Neu5Ac
# How it was run: as §1
# [9] = target: Neu5Ac(a2-8)Neu5Ac(a2-8)Neu5Ac(a2-3)Gal(b1-4)Glc
# How it was run: as §1
# [10] = target: Neu5Ac(a2-8)Neu5Ac(a2-8)Neu5Ac(a2-3)[Gal(b1-3)GalNAc(b1-4)]Gal(b1-4)Glc
# How it was run: as §1
# [11] = target: Neu5Ac(a2-8)Neu5Ac(a2-8)Neu5Ac(a2-3)[GalNAc(b1-4)]Gal(b1-4)Glc
# How it was run: as §1
# [12] = target: Neu5Ac(a2-8)Neu5Ac(a2-8)Neu5Ac(a2-8)Neu5Ac(a2-3)[GalNAc(b1-4)]Gal(b1-4)Glc
# How it was run: as §1
# [13] = target: Neu5Ac(a2-8)Neu5Gc(a2-3)Gal(b1-4)GlcNAc
# How it was run: as §1
# [14] = target: Neu5Ac(b2-6)Gal(b1-4)GlcNAc
# How it was run: as §1
# [15] = target: Neu5Ac(b2-6)GalNAc
# How it was run: as §1
# [16] = target: Neu5Ac9Ac(a2-3)Gal(b1-4)GlcNAc
# How it was run: as §1
# [17] = target: Neu5Ac9Ac(a2-6)Gal(b1-4)GlcNAc
# How it was run: as §1
# [18] = target: Neu5Gc(a2-3)Gal(b1-3)GlcNAc
# How it was run: as §1
# [19] = target: Neu5Gc(a2-3)Gal(b1-3)[Fuc(a1-4)]GlcNAc
# How it was run: as §1
# [20] = target: Neu5Gc(a2-3)Gal(b1-4)Glc
# How it was run: as §1
# [21] = target: Neu5Gc(a2-3)Gal(b1-4)GlcNAc
# How it was run: as §1
# [22] = target: Neu5Gc(a2-3)Gal(b1-4)GlcNAc(b1-3)Gal(b1-4)GlcNAc(b1-2)Man(a1-3)[Neu5Gc(a2-3)Gal(b1-4)GlcNAc(b1-3)Gal(b1-4)GlcNAc(b1-2)Man(a1-6)]Man(b1-4)GlcNAc(b1-4)GlcNAc
# How it was run: as §1
# [23] = target: Neu5Gc(a2-3)Gal(b1-4)[Fuc(a1-3)]GlcNAc
# How it was run: as §1
# [24] = target: Neu5Gc(a2-6)Gal(b1-4)GlcNAc
# How it was run: as §1
# [25] = target: Neu5Gc(a2-6)GalNAc
# How it was run: as §1
# [26] = target: Neu5Gc(a2-8)Neu5Ac(a2-3)Gal(b1-4)GlcNAc
# How it was run: as §1
# [27] = target: Neu5Gc(a2-8)Neu5Gc(a2-3)Gal(b1-4)GlcNAc
# How it was run: as §1
# [28] = target: Neu5Gc(a2-8)Neu5Gc(a2-3)Gal(b1-4)GlcNAc(b1-3)Gal(b1-4)GlcNAc
# How it was run: as §1
# [29] = target: Neu5Gc(a2-8)Neu5Gc(a2-6)Gal(b1-4)GlcNAc
# How it was run: as §1
# [30] = target: Neu5Gc(b2-6)Gal(b1-4)GlcNAc
# How it was run: as §1
binder,measurement,setting,value
B1,glycan array binding signal (z-score),[1],-0.066
same,glycan array binding signal (z-score),[2],-0.065
same,glycan array binding signal (z-score),[3],-0.052
same,glycan array binding signal (z-score),[4],-0.061
same,glycan array binding signal (z-score),[5],-0.079
same,glycan array binding signal (z-score),[6],-0.074
same,glycan array binding signal (z-score),[7],-0.07
same,glycan array binding signal (z-score),[8],-0.073
same,glycan array binding signal (z-score),[9],-0.088
same,glycan array binding signal (z-score),[10],-0.075
same,glycan array binding signal (z-score),[11],-0.067
same,glycan array binding signal (z-score),[12],-0.085
same,glycan array binding signal (z-score),[13],-0.08
same,glycan array binding signal (z-score),[14],-0.06
same,glycan array binding signal (z-score),[15],-0.049
same,glycan array binding signal (z-score),[16],-0.099
same,glycan array binding signal (z-score),[17],-0.076
same,glycan array binding signal (z-score),[18],-0.059
same,glycan array binding signal (z-score),[19],-0.057
same,glycan array binding signal (z-score),[20],-0.056
same,glycan array binding signal (z-score),[21],-0.093
same,glycan array binding signal (z-score),[22],-0.066
same,glycan array binding signal (z-score),[23],-0.082
same,glycan array binding signal (z-score),[24],-0.061
same,glycan array binding signal (z-score),[25],-0.055
same,glycan array binding signal (z-score),[26],-0.06
same,glycan array binding signal (z-score),[27],-0.059
same,glycan array binding signal (z-score),[28],-0.053
same,glycan array binding signal (z-score),[29],-0.08
same,glycan array binding signal (z-score),[30],-0.052
